# Test results: PubChem BioAssay AID488969 (Vanderbilt High Throughput Screening Facility, 2010)
# In all, about 110,000 compounds were measured (“z-score”: median about -0.1, highest 2% from about 2 on). This is one part of the list. Active and inactive are the calls of the source.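 How the source made its calls: active means z-score in the third read window above 3 or below -3; inactive means the rest.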
# Target: Metabotropic glutamate receptor 8 (Rattus norvegicus) (UniProt P70579)
# Test: mGluR8 Gi/Go-coupled signaling modulation – cell-based, rat, thallium flux, HTS, primary screen (AID 488969)
# Conditions: HEK293 rat mGluR8, GIRK (G protein-gated inwardly rectifying potassium channel) thallium flux, FluoZin2; at 10 µM; stronger effect = higher value; submaximal glutamate (EC20) added with thallium
# Chain of UniProt P70579 (P70579 whole entry, looked up): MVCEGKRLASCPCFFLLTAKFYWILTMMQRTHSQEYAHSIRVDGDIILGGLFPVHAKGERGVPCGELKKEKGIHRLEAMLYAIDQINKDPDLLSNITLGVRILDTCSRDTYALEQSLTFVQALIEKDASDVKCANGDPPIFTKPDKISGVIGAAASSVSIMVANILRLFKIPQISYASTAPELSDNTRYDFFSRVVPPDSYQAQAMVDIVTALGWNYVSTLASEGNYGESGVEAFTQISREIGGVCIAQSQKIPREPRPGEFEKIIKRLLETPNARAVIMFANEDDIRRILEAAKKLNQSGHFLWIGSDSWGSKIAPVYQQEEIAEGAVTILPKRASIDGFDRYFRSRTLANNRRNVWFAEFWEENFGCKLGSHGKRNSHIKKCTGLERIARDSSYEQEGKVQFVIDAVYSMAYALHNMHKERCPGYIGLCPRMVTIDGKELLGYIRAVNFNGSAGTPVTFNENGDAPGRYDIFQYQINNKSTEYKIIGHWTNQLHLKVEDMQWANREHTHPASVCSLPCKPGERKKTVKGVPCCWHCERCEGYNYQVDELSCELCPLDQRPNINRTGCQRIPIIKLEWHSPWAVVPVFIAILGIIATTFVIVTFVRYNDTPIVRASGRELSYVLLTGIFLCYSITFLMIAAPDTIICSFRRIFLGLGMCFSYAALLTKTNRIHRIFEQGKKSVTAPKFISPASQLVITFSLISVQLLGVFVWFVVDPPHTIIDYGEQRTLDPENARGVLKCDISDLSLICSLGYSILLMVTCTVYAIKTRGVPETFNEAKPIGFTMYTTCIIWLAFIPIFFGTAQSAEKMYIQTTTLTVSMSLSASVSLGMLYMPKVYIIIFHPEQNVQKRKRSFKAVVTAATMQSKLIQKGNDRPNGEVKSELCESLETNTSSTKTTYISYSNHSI
row,Compound,z-score
1,Cc1cc(N2CCN(S(=O)(=O)c3ccc(C)c(C)c3)CC2)c2ccccc2n1,0.774
2,O=C(C1CCC1)N1CCc2cc(S(=O)(=O)NC3CCCc4ccccc43)ccc21 (centres undefined),0.00996
3,N#Cc1ccc(-c2nc3ccccc3nc2-c2ccccc2)cc1C#N,-0.246
4,CCS(=O)(=O)NCCc1csc(-c2cccnc2)n1,0.366
5,Cc1ccc2oc(=O)c3cnn(CC(=O)NC4CCN(Cc5ccccc5)CC4)c3c2c1,0.567
6,Cc1ccc2c(Cl)cc(Cl)c(OCC(=O)Nc3cccc(S(=O)(=O)N(C)C)c3)c2n1,0.415
7,Cc1cc(NC(=O)c2cc(-c3ccc4c(c3)OCO4)on2)n(-c2ccccc2)n1,-1.07
8,COCCNC(=O)CN1C(=O)CSc2ncccc21,active: 3.57
9,CN1CCCC(OC(=O)COc2ccccc2)C1 (centres undefined),0.0377
10,Cc1cc(C)n(-c2nc3ccccc3nc2N2CCN(C(=O)c3ccc(Cl)cc3)CC2)n1,-1.16
11,CSCCC(NC(C)=O)C(=O)OCC(=O)N(c1ccccc1)c1ccccc1 (centres undefined),-0.357
12,CC(=O)NC1=C(C#N)C(c2ccccc2)c2c(ccc3ccccc23)O1 (centres undefined),-0.106
13,CC(CCc1ccccc1)NC(=O)c1ccco1 (centres undefined),0.0397
14,CN(C)c1nc(N)nc(CSc2ncc(Cl)cc2Cl)n1,0.472
15,N#CCSc1nc2ccc(N3CCCCC3)cc2c(=O)n1Cc1ccccc1,0.65
16,COCCn1nnnc1C(CC(C)C)N1CCN(c2ccccc2)CC1 (centres undefined),0.0468
17,CN(c1ccc(C(=O)NCc2ccccn2)cc1)S(C)(=O)=O,-0.362
18,CCOC(=O)N1CCN(C(=O)CS(=O)Cc2nc(-c3ccc(C)cc3)oc2C)CC1 (centres undefined),-0.212
19,COc1ccc(/C=C/C(=O)Nc2cc(S(=O)(=O)N3CCCCC3)ccc2N2CCCCC2)cc1OC,-0.459
20,CCOC(=O)c1c(NC(=O)c2nc3n(n2)C(C(F)F)CC(C)N3)sc2c1CCCC2 (centres undefined),-0.338
21,COc1ccc(N(CC(=O)NC(C)C)S(=O)(=O)c2ccc(NC(C)=O)cc2)cc1,-0.287
22,COC(=O)c1ccc(NC(=O)CN2CCN(c3ccccc3C)CC2)cc1,-0.287
23,CC(C)c1ccccc1-n1c(SCC(=O)N2CCN(c3ccccc3)CC2)nnc1-c1cccnc1,-0.532

row,Compound,z-score
1,Cc1ccccc1-n1ccnc1SCC(=O)O,-0.255
2,CCCCSc1nnc(NC(=O)CCc2ccccc2)s1,-0.304
3,COc1cc(C(=O)OCC(=O)Nc2ccc3c(c2)OC(F)(F)O3)ccc1OCc1c(C)noc1C,-0.513
4,COC(=O)C(C)N1C(=O)S/C(=C\c2cc(C)n(-c3ccccn3)c2C)C1=O (centres undefined),1.55
5,CCC(Sc1nc2sc(C(=O)OC)c(C)c2c(=O)n1N)C(=O)N(CC)CC (centres undefined),-0.473
6,CCC(c1nnnn1Cc1ccc(OC)cc1)N(CCCO)Cc1cc2cc3c(cc2[nH]c1=O)OCO3 (centres undefined),active: 5.57
7,O=C(Nc1ccc(Cl)cc1)Nc1nnc(SCc2ccc(Cl)cc2)s1,-0.53
8,O=C(COC(=O)C1(c2ccc(F)cc2)CCCC1)Nc1ncc(C(F)(F)F)cc1Cl,0.214
9,COc1ccc(Nc2nc(N)nc(CSc3nnc(N)s3)n2)cc1,-0.571
10,O=C(Nc1nc2ccccc2s1)c1cc(-c2ccco2)nc2ccccc12,-2.17
11,O=C(COC(=O)c1ccccc1C(=O)c1ccc(Cl)cc1)NCCc1ccccc1,-0.906
12,COC(=O)CN1C(=S)N(c2ccc(OC)cc2)C(=O)/C1=C/c1cccs1,-0.151
13,O=C1C2C3c4ccccc4C(c4ccccc43)[C@@H]2c2nc3ccccc3n21 (some centres undefined),-0.00722
14,Cc1cccc(C)c1NC(=O)CSc1nnc(-c2ccco2)c(-c2ccco2)n1,-0.26
15,CC(C)NS(=O)(=O)c1ccc(CCC(=O)Nc2ccc3c(c2)OCO3)cc1,-0.224
16,COCCNC(=O)c1snc2ccc(Cl)cc12,-0.262
17,COc1ccc(OC)c(NC2c3ncccc3C(=O)N2Cc2ccco2)c1 (centres undefined),0.571
18,CCCOc1ccc(N2C(=O)CC(SCCN)C2=O)cc1 (centres undefined),-0.0988
19,CC(=O)Nc1ccccc1-c1nc2ccccc2nc1OCC(=O)c1ccc(Br)cc1,-0.422
20,O=C1N/C(=C\c2ccccc2)c2ccccc21,-1.24
21,Cc1ccc(NC(=O)c2ccc(NCCCN3CCOCC3)c([N+](=O)[O-])c2)cc1Cl,0.0782
22,Cc1cc(=O)c2ccc3ccccc3c2[nH]1,-0.0487
23,Cn1c(Cn2nnc3ccccc32)nnc1SCC(=O)NCc1ccc2c(c1)OCO2,0.948

row,Compound,z-score
1,COc1ccc(C2CC(c3c(Cl)cccc3Cl)n3nc(N)nc3N2)cc1 (centres undefined),0.86
2,CCN(C(=O)[C@@H]1CCCN1C(=O)c1cccs1)c1nc2cc(Cl)ccc2s1,-0.127
3,O=C(O)c1ccc(CSc2nc(-c3ccccc3)cc(C(F)(F)F)n2)cc1,-0.615
4,Cc1oc(-c2ccccc2Cl)nc1CSCC(=O)NC1CCCC1,-0.0255
5,CCOC(=O)C(=O)Nc1cccc(C(=O)OCC)c1,-0.216
6,COC(=O)CSc1nnc(Cc2ccccc2)n1-c1ccc(C)cc1,-0.0209
7,COc1cc(-c2[nH]nc3c2C(c2ccco2)C(C#N)=C(N)O3)cc(OC)c1OC (centres undefined),-0.152
8,OCCN(Cc1ccccc1)Cc1ccc(Cl)cc1,-0.594
9,Cc1cccc(NCCC(=O)c2ccc(Br)cc2)c1,-0.179
10,Cc1nn(-c2cc(C)c3ccccc3n2)c2c1C1C(C2)C1(C)C (centres undefined),0.341
11,CCOc1ccc(-c2cc(C(=O)O)c3ccccc3n2)c(OCC)c1,-0.8
12,CCCCCCn1c(NCC)nc2c1c(=O)[nH]c(=O)n2C,0.213
13,CCC(C)(C)NC(=O)C(c1ccc(C)cc1)N(Cc1cccnc1)C(=O)c1csnn1 (centres undefined),-0.209
14,CCCN=CC1=C(O)CC(c2ccccc2)CC1=O (centres undefined),-0.493
15,Fc1cccc(Nc2cc(-n3cccn3)ncn2)c1,0.149
16,OCCNCc1cc(Br)ccc1OCc1ccc(Cl)cc1Cl,0.646
17,COC(=O)c1[nH]c2ccccc2c1NC(=O)CN1CCC(C(N)=O)(N2CCCCC2)CC1,0.14
18,CN(CC(=O)N1CCc2[nH]c3ccc(F)cc3c2C1)CC1OCCO1,0.197
19,CC(=O)Nc1cc(-c2nn(C)c(=O)c3ccccc23)ccc1N1CCCCC1,-0.0628
20,Cc1nc2ncnn2c(C)c1CCC(=O)O,0.399
21,Cc1ccc(CCNC(=O)CC2Oc3ccc(C)cc3NC2=O)cc1 (centres undefined),-0.307
22,O=C(COc1ccc(Cl)cc1Cl)Nc1ccccn1,1.52
23,COc1cc(-c2c(C#N)c(N)nc(SCc3ccncc3)c2C#N)cc(OC)c1OC,0.108
